In PubChem BioAssay AID1671193 (National Center for Advancing Translational Sciences (NCATS), 2021):
Among all 150,000 compounds or so, about 180 (0.12%) were called active. The inconclusive results got no clear call from the source; some entries with a clear call stand among them for comparison. Calls come from the whole dose curve; as a rule, active = well fitted cell-killing curve with a large enough effect; inconclusive = small, poorly fitted or top-dose-only effect, or effect the other way; inactive = flat fitted curve, though single readings scatter. Potencies of inconclusive entries are doubtful fits and often do not repeat.

experiment: GF-AFC viability counterscreen for inhibitors of alpha-synuclein gene (SNCA) expression; conditions: HEK-293-SNCA-luc viability, GF-AFC fluorescence, 24 h; activity change, negative = cytotoxicity: at 57.1 µM (top of the series) unless noted; note: nearly all actives have a fitted effect of over 30% in size;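 for activity change, negative = cytotoxicity: 0% = DMSO-treated cells and -100% = medium-only wells without cells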
Procedure, shortened: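 HEK-293-SNCA-luc cells (1500/well) plated 24 h, then exposed 24 h to a dilution series; GF-AFC added 30 min at 37C, fluorescence 405/540 nm; normalised to medium-only and DMSO wells, Hill fit.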
Potency is the fitted concentration of half-maximal effect; tags give direction and shape of the fitted curve.

Compound | activity change, negative = cytotoxicity | Potency
O=C(c1cnc(Cc2c(Cl)cccc2Cl)[nH]c1=O)N1CCCCC1 | inactive: -13.4% | 
Cc1noc([C@@H]2CN(C(=O)c3cscn3)C[C@H]2C(N)=O)n1 |  | inconclusive: 1 µM [rising, full curve]
COc1ccc(-c2nc3cnc(N4CCN(C)CC4)nc3n(C)c2=O)cc1 |  | inconclusive: 15.8 µM [rising, partial curve]
O=C1CO[C@H]2CCN(Cc3cccnc3)CC[C@@H]2N1Cc1ccccc1 | inactive: 0.36% [at 87.6 µM] | 
COc1ccccc1Nc1ccnc(N2CCC(C(=O)NCCc3ccc(F)cc3)CC2)n1 |  | inconclusive: 39.8 µM [cytotoxic, single point]
COc1ccc(-c2cnc(Nc3ccc(CN4CCN(C)CC4)cc3)c3c2CCO3)cn1 |  | inconclusive: 39.8 µM [cytotoxic, partial curve, poor fit]
Cc1nn(CC(=O)N2CCCCC2)c(=O)c2cc3occc3n12 |  | inconclusive: 0.316 µM [cytotoxic, full curve, poor fit]
c1ccc(-c2cc3c(cn2)CN(Cc2c[nH]c4ccccc24)CCN3)cc1 |  | inconclusive: 31.6 µM [cytotoxic, partial curve, poor fit]
COCCNC(=O)c1cnc2c(c1)N(C(=O)Cc1cn(C)c3ccccc13)CCC2 | inactive: -10.3% [at 87.6 µM] | 
CC1(CNC(=O)c2cnccn2)CCOCC1 | inactive: 6.58% | 
O=C(Nc1cccc(C(F)(F)F)c1)c1nc2c(o1)CCN(Cc1ccc(F)cc1)CC2 | inactive: -23.8% [at 87.6 µM] | 
Nc1nc(OCc2cc(Br)cs2)c2[nH]cnc2n1 | inactive: -8.99% | 
CCc1ccc2oc(-c3cccc(NC(=O)c4cc5ccccc5o4)c3)nc2c1 |  | inconclusive: 2 µM [cytotoxic, full curve, poor fit]
Cc1ccc2c(c1)c(=O)c(C(=O)c1ccc3c(c1)OCO3)cn2Cc1cccc(F)c1 |  | inconclusive: 10 µM [cytotoxic, partial curve, poor fit]
COc1ccc(-c2[nH]c(-c3ccccc3)nc2SCC(=O)Nc2ccc3c(c2)OCCO3)cc1 |  | inconclusive: 25.1 µM [cytotoxic, partial curve, poor fit]
CN1CCN(CCCNC(=O)Cn2c(-c3cccs3)cc3cc(Cl)ccc32)CC1 |  | inconclusive: 31.6 µM [cytotoxic, single point]
Cc1cc(C)c(NC(=O)CN2c3ccccc3S(=O)(=O)c3ccccc32)c(C)c1 |  | inconclusive: 2 µM [cytotoxic, full curve, poor fit]
O=C1CCN(C(=O)CN2CCCCCC2)CCCC(c2nc(-c3ccccc3)no2)CCN1 (centres undefined) | inconclusive: -38.9% | 
N#Cc1ccccc1-c1ccc2ncnc(NCc3ccccc3)c2c1 |  | inconclusive: 7.94 µM [cytotoxic, full curve, poor fit]
COc1ccc(C(=O)N2CC[C@H]3NC(=O)N(c4ccc(C(C)C)cc4)C(=O)[C@H]32)cc1 |  | inconclusive: 7.08 µM [cytotoxic, full curve, poor fit]
COc1ccc(-c2ccc3c(N4CCOCC4C)nc(N4CCOCC4C)nc3n2)cc1CO (centres undefined) |  | inconclusive: 21.2 µM [rising, single point]
CC1=C(CO)C(=O)O[C@@H]([C@@H](C)[C@H]2CC[C@H]3[C@@H]4C[C@H]5O[C@]56[C@@H](O)C=CC(=O)[C@]6(C)[C@@H]4CC[C@]23C)C1 |  | active: 6.81 µM

Compound | activity change, negative = cytotoxicity | Potency
CC[C@H]1CN(C(=O)Nc2cccc(C(F)(F)F)c2)CC[C@H]1CC(=O)O | inactive: -0.632% [at 87.6 µM] | 
Fc1ccc(Cc2noc(-c3nc(-c4ccc5c(c4)OCO5)no3)n2)cc1 | inactive: -2.14% | 
Cc1cccc(N(C)C(=O)Cn2c(N3CCc4ccccc4C3)nc(C)cc2=O)c1 |  | active: 11.2 µM
CC1(C(=O)Nc2ccc(F)cc2)CN(Cc2ccccc2)Cc2ccc(N3CCOCC3)nc21 (centres undefined) | inactive: -16.2% | 
CCOCCCn1c(=N)c(C(=O)NCc2cccnc2)cc2c(=O)n3cc(C)ccc3nc21 |  | inconclusive: 31.6 µM [rising, partial curve]
Cc1ccc(C)c(-c2cc3c(=O)n(CCNC(=O)c4ccccc4)ccn3n2)c1 |  | inconclusive: 35.5 µM [cytotoxic, partial curve, poor fit]
NC1(Cc2ccc(Cl)cc2)CCN(c2ncnc3[nH]ccc23)CC1 |  | inconclusive: 21.5 µM [cytotoxic, partial curve, poor fit]
COC(=O)CNC(=O)c1nc(-c2ccc(Cl)cc2)c2ccccn12 |  | inconclusive: 63.1 µM [cytotoxic, single point]
Cc1cn2nc(C(=O)NCc3ccc(C(C)C)cc3)cc2c(=O)[nH]1 | inactive: 7% | 
O=C(C[C@@H]1CCNC[C@@H]1Cc1cc(-c2ccc(F)cc2)on1)Nc1ccccc1 |  | inconclusive: 31.6 µM [cytotoxic, single point]
CCOc1ccc(-n2c(=O)c3c(C)c(C)sc3n(CC(=O)N3CCC(C)CC3)c2=O)cc1 |  | inconclusive: 10 µM [cytotoxic, partial curve, poor fit]
Cc1ncc2n1C(=O)N(C1CCN(Cc3ccccc3)CC1)C2 |  | inconclusive: 3.16 µM [cytotoxic, full curve, poor fit]
COc1ccc(C(=O)N[C@@H]2CCC[C@@H]2C(=O)N2CCCCC2)cc1 |  | inconclusive: 6.31 µM [cytotoxic, partial curve, poor fit]
COC[C@H]1NC(=O)CC[C@H]1C(=O)N1CCN(c2ccccc2)CC1 | inactive: 22.1% | 
COc1ccc(-c2nnc(C[C@@H]3C[C@@H](C(C)C)[C@H](CNC(=O)c4ccc(F)cc4)C=C3C)o2)cc1 |  | inconclusive: 7.08 µM [cytotoxic, partial curve, poor fit]
COc1ccc(-c2noc([C@@H]3Cc4nc[nH]c4CN3C(=O)Nc3ccc(Cl)cc3)n2)cc1 |  | inconclusive: 1.12 µM [cytotoxic, full curve]
c1cncc(-c2cc3c(cn2)CN(Cc2ccncc2)CCN3)c1 | inactive: -3.28% [at 87.6 µM] | 
COc1cc(NC(=O)N2CCC3(CC2)Nc2ccccc2-n2cccc23)cc(OC)c1OC |  | inconclusive: 7.94 µM [cytotoxic, partial curve, poor fit]
CCCCCC(=O)Nc1nc2c(s1)C[C@@H]1[C@](C)(CO)[C@H](O)CC[C@@]1(C)[C@@H]2CC(=O)NCc1cccnc1 |  | inconclusive: 28.2 µM [cytotoxic, single point]
COc1ccc(CCNC(=O)Cn2cc(S(=O)(=O)Cc3ccccc3Cl)c3ccccc32)cc1OC |  | inconclusive: 39.8 µM [cytotoxic, single point]
COC(=O)N1CCN(c2nccc(Nc3ccccc3F)n2)CC1 |  | inconclusive: 44.7 µM [cytotoxic, single point]
O=C(c1nc2ncccn2n1)N1CCCn2cc(-c3ccccc3)nc21 | inactive: -3.01% | 

Compound | activity change, negative = cytotoxicity | Potency
CN(C)c1ncc2nc(-c3ccc(Cl)cc3)c(=O)n(CCC#N)c2n1 |  | inconclusive: 12.6 µM [rising, partial curve, poor fit]
CCCCOc1cc(C(=O)OCCN(CC)CC)ccc1N |  | inconclusive: 5.97 µM [rising, single point]
COc1ccc(NC(=O)Cn2c(=O)n(Cc3ccccc3)c(=O)c3oc4ccccc4c32)cc1Cl |  | inconclusive: 10 µM [cytotoxic, full curve, poor fit]
CC(=O)N1CCC(N[C@H]2C[C@@H](Cc3cc(CN(C)Cc4ccccc4)on3)C2(C)C)CC1 |  | inconclusive: 11.2 µM [cytotoxic, partial curve, poor fit]
COCCCNC(=O)CCC(=O)NNc1nc2ccccc2c2nc(-c3ccccc3)nn12 |  | inconclusive: 10 µM [cytotoxic, partial curve, poor fit]
COc1ccc(N2CC3CCC(C2)N3Cc2cccc(-c3ccc(F)cc3F)c2)cc1 | inactive: 8.82% | 
N#Cc1ccc2ncnc(NCCc3ccccc3)c2c1 | inactive: -4.32% | 
CCNc1ncc2nc(-c3ccc(F)cc3)c(=O)n(CCC#N)c2n1 |  | inconclusive: 4.47 µM [rising, partial curve, poor fit]
O=C(NCCc1ccccc1F)c1nc2sccn2c1-c1ccc(F)cc1 | inactive: -6.5% | 
COc1cc([C@H]2Oc3cc([C@H]4Oc5cc(O)cc(O)c5C(=O)[C@@H]4O)ccc3O[C@@H]2CO)ccc1O | inactive: -27.1% [at 23.9 µM] | 
CC(C)C(=O)Nc1ncc(-c2cc(C(F)F)nn2-c2c(Cl)cccc2Cl)s1 |  | inconclusive: 42.9 µM [cytotoxic, partial curve, poor fit]
O=C1COc2ccc(-c3ccoc3)nc2CN1Cc1ccccc1 |  | inconclusive: 56.2 µM [cytotoxic, single point]
CN(Cc1ccccc1)C(=O)C1CCC(CNS(=O)(=O)c2ccc3c(c2)CCCC(=O)N3)CC1 (centres undefined) |  | inconclusive: 14.1 µM [cytotoxic, single point]
COCCc1noc([C@@H]2CC(F)(F)CN2C(=O)c2ncccc2C)n1 | inactive: 2.3% | 
COc1ccc(NC(=O)CC2C(=O)N(c3ccc(F)cc3)C(=O)N2CCc2sccc2C)cc1 (centres undefined) |  | inconclusive: 20 µM [cytotoxic, single point]
Cc1cc(C)cc(C(=O)NCc2nnc3ccc(-c4ccccc4)nn23)c1 | inactive: -16.1% | 
O=C1CN(C(=O)COc2ccc(Cl)cc2)C(c2ccc(F)cc2)c2cc(Br)ccc2N1 (centres undefined) |  | inconclusive: 39.8 µM [cytotoxic, single point]
CCNC(=O)[C@@H]1C[C@H](NC(=O)CCOC)CN1Cc1ccc(F)cc1C |  | inconclusive: 2 µM [cytotoxic, partial curve, poor fit]
Cc1nc2n(c1C(=O)N(C)c1ccccc1)CCC(Nc1ccc(F)cc1)C2 (centres undefined) | inactive: -13.8% [at 87.6 µM] | 
COc1ccc(Nc2ccnc(N3CCCC(C(=O)NCc4cccc(Cl)c4)C3)n2)cc1 (centres undefined) |  | inconclusive: 39.8 µM [cytotoxic, single point]
